Results on 21 compounds are retold here after the supplement of paper PMC12355420.

Structures are written as SMILES. Where a name gives a salt, the structure may show the parent alone. The list shows a part of the results. Cut-off read from the data, not from the text of the source: active = 0.5 or less and inactive = the rest. Repeats are few or missing, and single values can be far off.

Holding throughout (details): 50 µM; 24 h
The subject of assay [1] is HeLa VPS33A reporter cells. Nature of the assay: relative cell viability (CellMask signal) vs DMSO (fraction of DMSO); higher = less cytotoxic.
In assay [2] the test system is HeLa VPS33A R498W KI + HA-SDC1-FLAG. As to the kind of experiment: relative GAG core protein HA-SDC1 amount per cell number vs DMSO (fraction of DMSO); higher = more SDC1 (GAG core protein).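 Note: HA-SDC1 level read out by In-Cell Western staining with an anti-HA antibody against the N-terminal tag, screening FDA-approved library drugs.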
The test system of assay [3] is HeLa VPS33A KO + NLuc-VPS33A R498W. As to the kind of experiment: relative mutant VPS33A R498W amount (NanoLuc luminescence) vs DMSO (fraction of DMSO); HeLa model of a glycosaminoglycan (GAG) storage disease; KI is knock-in and KO knock-out; SDC1 is syndecan 1; higher = higher mutant VPS33A level.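 Note: screen of an FDA-approved drug library, NanoLuc luminescence read after lysing the treated cells, taken as a measure of mutant VPS33A protein stability.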
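Throughout, for relative cell viability (CellMask signal) vs DMSO: primary screen of an FDA-approved drug library in HeLa reporter cells in 96-well format, CellMask signal normalized to DMSO-treated wells set as 1, under 0.5 deemed highly cytotoxic.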

`CC1=NN(c2ccccc2)C(=O)C1` [Edaravone] showed a relative cell viability in assay [1] of 0.925. The “relative GAG core protein HA-SDC1 amount per cell number” value in assay [2] is inactive: 1.32. In addition, the “relative mutant VPS33A R498W amount” value in assay [3] was 1.69.

In assay [1], `CCOc1ccccc1OC(c1ccccc1)C1CNCCO1` (configuration not stated) [Reboxetine mesylate] returned a relative cell viability of 0.954. The “relative GAG core protein HA-SDC1 amount per cell number” value in assay [2] is inactive: 0.755. Also, in assay [3], the “relative mutant VPS33A R498W amount” value stood at 0.733.

The compound `CNC(=O)c1cc(Oc2ccc(NC(=O)Nc3ccc(Cl)c(C(F)(F)F)c3)c(F)c2)ccn1` [Regorafenib hydrochloride] yielded a relative cell viability in assay [1] of 1.06. Besides, the “relative GAG core protein HA-SDC1 amount per cell number” value in assay [2] was inactive: 0.689. Also, the “relative mutant VPS33A R498W amount” value in assay [3] came to 0.194.

`CCCCNc1cc(C(=O)O)cc(S(N)(=O)=O)c1Oc1ccccc1` [Bumetanide]: the relative cell viability in assay [1] came to 1.18. Further, in assay [2], the “relative GAG core protein HA-SDC1 amount per cell number” value was inactive: 1.08. Also, in assay [3], the “relative mutant VPS33A R498W amount” value was determined as 1.39.

Turning to `CN(C/C=C/C#CC(C)(C)C)Cc1cccc2ccccc12` [Terbinafine HCl], the relative cell viability in assay [1] is 0.905. The “relative GAG core protein HA-SDC1 amount per cell number” value in assay [2] was inactive: 0.538. Moreover, in assay [3], the “relative mutant VPS33A R498W amount” value turned out to be 0.575.

Take `C[C@H]1C[C@@H]2[C@H]([C@@H](O)C[C@@]3(C)[C@H]2CC[C@]3(O)C(=O)CO)[C@@]2(C)C=CC(=O)C=C12` [Methylprednisolone]: the relative cell viability in assay [1] is 0.988. Besides, in assay [2], the “relative GAG core protein HA-SDC1 amount per cell number” value was inactive: 1.75. Besides, the “relative mutant VPS33A R498W amount” value in assay [3] is 0.818.

Compound `CCN(CC)CCOC(=O)C(c1ccccc1)c1ccccc1` [Adiphenine HCl] yielded a relative cell viability in assay [1] of 1.05. Further, the “relative GAG core protein HA-SDC1 amount per cell number” value in assay [2] is inactive: 0.792. In assay [3], the “relative mutant VPS33A R498W amount” value turned out to be 1.12.

`CC(CCc1ccccc1)NCC(O)c1ccc(O)c(C(N)=O)c1` (configuration not stated) [Labetalol HCl] returned a relative cell viability in assay [1] of 1.05. The “relative GAG core protein HA-SDC1 amount per cell number” value in assay [2] was inactive: 0.69. Further, the “relative mutant VPS33A R498W amount” value in assay [3] was 1.69.

For the compound `CC(=O)OCC(=O)[C@@]1(O)CC[C@H]2[C@@H]3CCC4=CC(=O)C=C[C@]4(C)[C@H]3[C@@H](O)C[C@@]21C` [Prednisolone Acetate], the relative cell viability in assay [1] came out at 0.973. Also, the “relative GAG core protein HA-SDC1 amount per cell number” value in assay [2] is inactive: 1.1. In addition, the “relative mutant VPS33A R498W amount” value in assay [3] amounted to 0.908.

As to `CN(Cc1cc(Br)cc(Br)c1N)C1CCCCC1` [Bromhexine HCl], the relative cell viability in assay [1] turned out to be 1.02. Further, in assay [2], the “relative GAG core protein HA-SDC1 amount per cell number” value is inactive: 0.558. In addition, the “relative mutant VPS33A R498W amount” value in assay [3] came out at 0.695.

In turn, `CS(=O)(=O)N1CCN(Cc2cc3nc(-c4cccc5[nH]ncc45)nc(N4CCOCC4)c3s2)CC1` showed a relative cell viability in assay [1] of 1.11. For the same compound, in assay [2], the “relative GAG core protein HA-SDC1 amount per cell number” value is inactive: 0.88. In addition, in assay [3], the “relative mutant VPS33A R498W amount” value was determined as 2.88.

For the compound `Oc1cc(O)c2c(c1)O[C@H](c1ccc(O)c(O)c1)[C@H](O)C2` [(-)-epicatechin], in assay [1], the relative cell viability worked out at 1.08. In addition, the “relative GAG core protein HA-SDC1 amount per cell number” value in assay [2] was inactive: 0.689. The “relative mutant VPS33A R498W amount” value in assay [3] was found to be 1.06.

In the case of `CC1(C)Cc2c(-c3ccccc3)c(-c3ccc(Cl)cc3)c(CC(=O)O)n2C1` [Licofelone], the relative cell viability in assay [1] came out at 1.14. In addition, in assay [2], the “relative GAG core protein HA-SDC1 amount per cell number” value was active: 0.428. In addition, the “relative mutant VPS33A R498W amount” value in assay [3] stood at 0.838.

As for `CCCC(CCC)C(=O)O` [Divalproex Sodium], the relative cell viability in assay [1] was found to be 1.26. Further, the “relative GAG core protein HA-SDC1 amount per cell number” value in assay [2] is inactive: 1.04. Moreover, the “relative mutant VPS33A R498W amount” value in assay [3] is 1.2.

`N#Cc1ccc(C(c2ccc(C#N)cc2)n2cncn2)cc1` [Letrozole] came in with a relative cell viability in assay [1] of 1.33. Further, the “relative GAG core protein HA-SDC1 amount per cell number” value in assay [2] is inactive: 0.967. In assay [3], the “relative mutant VPS33A R498W amount” value was determined as 1.12.

As to `COc1cc(-c2oc3cc(O)cc(O)c3c(=O)c2O)ccc1O` [Isorhamnetin], the relative cell viability in assay [1] was found to be 0.988. For the same compound, the “relative GAG core protein HA-SDC1 amount per cell number” value in assay [2] was inactive: 0.842. Besides, the “relative mutant VPS33A R498W amount” value in assay [3] was 0.357.

In assay [1], `COC(=O)C1=C(C)NC(C)=C(C(=O)OCCN2CCN(C(c3ccccc3)c3ccccc3)CC2)C1c1cccc([N+](=O)[O-])c1` (configuration not stated) [Manidipine 2HCl] gave a relative cell viability of 0.983. The “relative GAG core protein HA-SDC1 amount per cell number” value in assay [2] is active: 0.282. The “relative mutant VPS33A R498W amount” value in assay [3] was determined as 0.815.

On to `CC1(C)[C@H](C(=O)O)N2C(=O)C[C@H]2S1(=O)=O` [Sulbactam], for which, in assay [2], the “relative GAG core protein HA-SDC1 amount per cell number” value is inactive: 0.952. In assay [3], the “relative mutant VPS33A R498W amount” value is 1.42.

With `N=C(N)NC(=N)NCCc1ccccc1` [Phenformin HCl], the relative cell viability in assay [1] stood at 1.36. Moreover, in assay [2], the “relative GAG core protein HA-SDC1 amount per cell number” value was inactive: 0.867. In addition, the “relative mutant VPS33A R498W amount” value in assay [3] came to 0.985.

Consider `c1ccc2c(c1)CCCC2C1=NCCN1` (configuration not stated) [Tetrahydrozoline HCl], for which the relative cell viability in assay [1] turned out to be 1.15. The “relative GAG core protein HA-SDC1 amount per cell number” value in assay [2] is inactive: 0.979. For the same compound, the “relative mutant VPS33A R498W amount” value in assay [3] was found to be 1.15.

On to `C=C[C@H]1CN2CC[C@H]1C[C@H]2[C@H](O)c1ccnc2ccc(OC)cc12` [Quinine HCl Dihydrate], for which the relative cell viability in assay [1] is 1.01. The “relative GAG core protein HA-SDC1 amount per cell number” value in assay [2] is inactive: 0.829. Besides, the “relative mutant VPS33A R498W amount” value in assay [3] worked out at 1.59.
